Over roughly 33,000 sequences, “E-score (-0.5 to 0.5)” has its median near -0.011; the highest 2% begin near 0.28. This is one part of the list.
These sequences were tested against T1, Gcr1 (UniProt P07261) (assay: PBM E-score (8-mer binding enrichment) (E-score (-0.5 to 0.5)); higher = stronger / more preferred TF binding; most listed sequences are background and not binding sites). Settings: protein concentration: 100 nM; construct: GST-full length.
T1 sequence: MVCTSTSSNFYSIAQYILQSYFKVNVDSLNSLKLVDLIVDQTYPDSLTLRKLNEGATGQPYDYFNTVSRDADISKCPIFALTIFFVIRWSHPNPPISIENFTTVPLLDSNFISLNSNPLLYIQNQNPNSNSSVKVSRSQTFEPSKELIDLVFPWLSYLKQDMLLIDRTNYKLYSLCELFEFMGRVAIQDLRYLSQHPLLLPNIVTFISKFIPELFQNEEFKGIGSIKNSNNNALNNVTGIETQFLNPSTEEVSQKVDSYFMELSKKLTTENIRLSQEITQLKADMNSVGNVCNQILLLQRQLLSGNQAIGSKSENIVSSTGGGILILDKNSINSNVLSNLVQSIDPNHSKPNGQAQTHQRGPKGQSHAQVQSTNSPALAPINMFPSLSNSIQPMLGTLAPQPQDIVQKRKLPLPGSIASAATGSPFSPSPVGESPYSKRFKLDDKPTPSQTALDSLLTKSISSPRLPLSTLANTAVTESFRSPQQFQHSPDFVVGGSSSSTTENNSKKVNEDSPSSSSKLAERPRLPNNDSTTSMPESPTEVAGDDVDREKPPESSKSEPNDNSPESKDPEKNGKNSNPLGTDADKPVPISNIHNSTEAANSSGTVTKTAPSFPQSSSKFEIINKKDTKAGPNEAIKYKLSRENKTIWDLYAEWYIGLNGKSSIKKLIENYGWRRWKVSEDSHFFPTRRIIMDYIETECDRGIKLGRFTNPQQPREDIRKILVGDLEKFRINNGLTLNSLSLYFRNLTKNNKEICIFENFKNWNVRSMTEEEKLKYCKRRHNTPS
Method: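 Universal 'all 10-mer' protein binding microarrays (Agilent AMADID 015681) probed with GST-tagged S. cerevisiae TFs (full-length or DBD) made by in vitro transcription/translation (PURExpress), about 100-200 nM. Bound TF was detected with fluorescent anti-GST. Each ungapped 8-mer (which stands for itself and its reverse complement) is scored by the PBM enrichment score (E-score), a modified Wilcoxon-Mann-Whitney statistic from -0.5 to +0.5, computed with the Universal PBM Analysis Suite. Scale: above 0.35 generally sequence-specific binding.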

Compared with CAAATCCC, CCTAAACG is higher in “PBM E-score” value: -0.112 for the first, 0.113 for the second.

First: GCTCCCTA
Second: GCTCGGAA
The “PBM E-score” value of the first is lower: 0.104 for the first, 0.13 for the second.

First: GTAAAAAC
Second: GCGCGAAA
The “PBM E-score” value of the first is lower: 0.02 for the first, 0.0513 for the second.

Going from ACCGAACG to AGGCTACG, the “PBM E-score” value falls from 0.0306 to -0.275.

Compared with AGTTTTAA, CCCTAGAC is lower in “PBM E-score” value: 0.0326 for the first, -0.126 for the second.

First: AGTCCCTG
Second: AATGTAGG
The “PBM E-score” value of the first is higher: -0.0505 for the first, -0.0931 for the second.

Compared with CGCTGTTC, CTGTTTGA is lower in “PBM E-score” value: 0.0481 for the first, -0.0982 for the second.

Compared with GACTTCGC, AGCTGTGG is lower in “PBM E-score” value: 0.201 for the first, 0.177 for the second.

Going from GTGACCGA to GACCGACC, the “PBM E-score” value falls from -0.0657 to -0.215.

Going from GGTAGACC to AGTACGTA, the “PBM E-score” value rises from -0.317 to -0.076.

Going from CAAAGTGG to GTTCGTGA, the “PBM E-score” value rises from 0.00098 to 0.0206.

First: AGCGCCCT
Second: AAGAGGCC
The “PBM E-score” value of the first is higher: 0.236 for the first, -0.0271 for the second.

Compared with CCGACTAC, ATCGACGA is lower in “PBM E-score” value: -0.0185 for the first, -0.233 for the second.

Compared with CACCACTG, CTTGCGCC is lower in “PBM E-score” value: 0.167 for the first, -0.169 for the second.

Going from CAGGTCCA to ACGAAGCG, the “PBM E-score” value rises from -0.019 to 0.0293.

Going from GCCATTCA to AGCTGCGA, the “PBM E-score” value rises from -0.0672 to 0.244.

First: GCTGATGA
Second: ATTCTTTG
The “PBM E-score” value of the first is lower: -0.0464 for the first, 0.127 for the second.

First: ATTAAGGA
Second: ATCCCCAC
The “PBM E-score” value of the first is lower: 0.0697 for the first, 0.122 for the second.

First: ATGTCTTC
Second: CCAGGGAC
The “PBM E-score” value of the first is higher: -0.0642 for the first, -0.161 for the second.

First: ACCCAAAC
Second: CTAGTGAA
The “PBM E-score” value of the first is higher: 0.145 for the first, 0.0743 for the second.

Going from AATCATAG to ATATTGAA, the “PBM E-score” value rises from 0.00579 to 0.0925.

First: CAAACGAG
Second: CAACAGCA
The “PBM E-score” value of the first is lower: -0.112 for the first, 0.077 for the second.

First: CAGCGGAG
Second: ACCTTCGC
The “PBM E-score” value of the first is higher: -0.0562 for the first, -0.0588 for the second.

First: CTCTAATC
Second: CACGAGTC
The “PBM E-score” value of the first is higher: -0.0195 for the first, -0.0225 for the second.

Compared with GACCGGAC, AAAGCCCG is higher in “PBM E-score” value: -0.183 for the first, -0.111 for the second.

Going from ACAGACCC to TACCTGAA, the “PBM E-score” value rises from -0.11 to 0.0937.

Going from AACAAGAA to AGTGGATG, the “PBM E-score” value rises from 0.229 to 0.394.

First: AATTACCG
Second: AACATTCG
The “PBM E-score” value of the first is higher: 0.19 for the first, -0.0406 for the second.

First: GTTCAGAA
Second: TCCGCGCA
The “PBM E-score” value of the first is higher: 0.0385 for the first, -0.105 for the second.

Going from AGATGGCA to ACTCAGAT, the “PBM E-score” value falls from 0.0969 to 0.05.

First: ACGATTAA
Second: ACCTGAGC
The “PBM E-score” value of the first is lower: 0.107 for the first, 0.183 for the second.

Compared with ACGGCCTA, AAAGGTGG is higher in “PBM E-score” value: -0.202 for the first, 0.0257 for the second.

First: CGGTGCCA
Second: CTGCGCGC
The “PBM E-score” value of the first is lower: 0.00263 for the first, 0.173 for the second.

Going from GTATTACA to AACTATCA, the “PBM E-score” value falls from 0.077 to -0.0226.

Compared with ACCCGACT, GCGAATCC is higher in “PBM E-score” value: 0.0284 for the first, 0.235 for the second.

First: AAGCCGAG
Second: CGTACATA
The “PBM E-score” value of the first is higher: -0.0118 for the first, -0.0914 for the second.

Compared with ACGAGAGG, TACTTCTA is higher in “PBM E-score” value: -0.238 for the first, 0.0389 for the second.

First: AATACAGA
Second: GGCTGACA
The “PBM E-score” value of the first is higher: -0.0124 for the first, -0.274 for the second.

Compared with CATTCGGC, TCTATTCA is higher in “PBM E-score” value: 0.0681 for the first, 0.0799 for the second.

Compared with AGCGGTCA, AGCAAGAT is lower in “PBM E-score” value: 0.00719 for the first, -0.00413 for the second.

Going from AACGGGTC to CTCTTGAC, the “PBM E-score” value falls from -0.122 to -0.178.

Compared with CTCCCTTC, GACGCGAC is higher in “PBM E-score” value: -0.185 for the first, 0.104 for the second.

First: GTTTTGTA
Second: GACTTGGC
The “PBM E-score” value of the first is higher: 0.0369 for the first, -0.00593 for the second.

Compared with GAGCCTTA, ATGACAAG is higher in “PBM E-score” value: -0.217 for the first, -0.124 for the second.

Going from CGTCGGCC to CCCTCGAC, the “PBM E-score” value rises from -0.282 to -0.0804.

First: CGCGGGGA
Second: ACCCGTAA
The “PBM E-score” value of the first is higher: 0.0382 for the first, -0.0844 for the second.

First: AATACTAT
Second: GCAAAACA
The “PBM E-score” value of the first is lower: -0.00997 for the first, 0.038 for the second.

First: GTCATTCA
Second: GTACGTAC
The “PBM E-score” value of the first is lower: -0.187 for the first, -0.16 for the second.

First: AGGGTGTC
Second: CAGGAGAG
The “PBM E-score” value of the first is higher: -0.0464 for the first, -0.168 for the second.

Compared with AGAGCAAA, CCAAGAGG is lower in “PBM E-score” value: 0.108 for the first, 0.00028 for the second.

First: AGAGATAC
Second: ATCTATCA
The “PBM E-score” value of the first is higher: 0.147 for the first, -0.0466 for the second.

Compared with CTGCAACA, CCTGTGTA is lower in “PBM E-score” value: 0.13 for the first, 0.0704 for the second.

First: AAGATATA
Second: ATTATGGG
The “PBM E-score” value of the first is lower: 0.0504 for the first, 0.115 for the second.

Compared with ACTTCTGC, CATGACGC is lower in “PBM E-score” value: 0.0872 for the first, -0.00593 for the second.

First: CCCCCTCG
Second: GTCTGCTA
The “PBM E-score” value of the first is lower: -0.309 for the first, 0.0506 for the second.

First: ATAGAATA
Second: AAGGAGGC
The “PBM E-score” value of the first is higher: 0.108 for the first, 0.0163 for the second.

Compared with CAAGACCA, CGGCTCTA is higher in “PBM E-score” value: -0.00065 for the first, 0.0415 for the second.

First: ATGTACCG
Second: AAGGAGTG
The “PBM E-score” value of the first is lower: -0.0285 for the first, 0.143 for the second.

First: ACCAATAT
Second: CAGACTAA
The “PBM E-score” value of the first is higher: 0.0804 for the first, -0.169 for the second.

Compared with AAGAGACG, AGTACGCA is lower in “PBM E-score” value: -0.0377 for the first, -0.0458 for the second.

First: CTTACCCC
Second: ACTTGTTG
The “PBM E-score” value of the first is lower: -0.052 for the first, 0.137 for the second.

First: CTCAGAAA
Second: AACCGTGA
The “PBM E-score” value of the first is higher: -0.133 for the first, -0.139 for the second.

First: ACACACGC
Second: CGCCAAGC
The “PBM E-score” value of the first is higher: 0.121 for the first, -0.00059 for the second.

Going from ACCTCGCA to AACAGCAA, the “PBM E-score” value rises from -0.0887 to 0.017.

Compared with CTCGGCGC, CACGGTGA is lower in “PBM E-score” value: 0.159 for the first, 0.00799 for the second.

Compared with GAGACCTC, CAGCATAG is higher in “PBM E-score” value: -0.135 for the first, -0.0201 for the second.

Compared with CAGAGTCG, AGGTCTTA is lower in “PBM E-score” value: 0.0294 for the first, -0.196 for the second.

Going from ATGTAAAG to CGCCATAG, the “PBM E-score” value falls from -0.0534 to -0.14.

Going from ATAGCACC to CGGCCATA, the “PBM E-score” value falls from 0.159 to -0.242.

First: ACGCAATG
Second: CTAGGCCC
The “PBM E-score” value of the first is lower: -0.0922 for the first, 0.025 for the second.

Going from CATAGCCA to AGTCGCTA, the “PBM E-score” value rises from -0.2 to 0.0325.

Going from GATTACAC to ACCTTCAC, the “PBM E-score” value falls from 0.0333 to -0.187.

Going from ATATTATC to GCAAGGGA, the “PBM E-score” value falls from 0.159 to -0.144.

Compared with AGCGGGTG, ACGTCACC is lower in “PBM E-score” value: 0.129 for the first, -0.0216 for the second.

Compared with CGATAATC, ATGTCCAC is higher in “PBM E-score” value: 0.07 for the first, 0.0849 for the second.

Going from ATCCTATA to GACCGTAC, the “PBM E-score” value falls from 0.237 to -0.315.

Compared with CACTGAAA, CAAGTCCC is lower in “PBM E-score” value: 0.138 for the first, -0.29 for the second.

First: GTGGGACA
Second: ACGCGGGC
The “PBM E-score” value of the first is lower: -0.267 for the first, -0.00163 for the second.

Compared with AATACGCA, AGGTATTC is lower in “PBM E-score” value: 0.18 for the first, 0.0478 for the second.

Going from ACACCAGG to CTCGCTCC, the “PBM E-score” value rises from -0.205 to -0.0198.

Going from AAATCAAC to CGAGCCAA, the “PBM E-score” value falls from 0.00896 to -0.00353.

Compared with CCACGGAC, GTCGCCTA is higher in “PBM E-score” value: -0.14 for the first, 0.0571 for the second.

Going from AGCGAGCA to CCTGAGAA, the “PBM E-score” value rises from -0.108 to 0.0359.

Compared with TCAGTCGA, AAGAAACG is lower in “PBM E-score” value: 0.0217 for the first, -0.134 for the second.

Going from CCCGTGTA to CCTGCCTA, the “PBM E-score” value rises from -0.0398 to 0.00507.

First: AGTTGTTG
Second: CAGAGCGG
The “PBM E-score” value of the first is higher: 0.0285 for the first, -0.00201 for the second.

From the supplement of paper PMC3334620
